Experimental data taken from PubChem BioAssay AID485294 (National Center for Advancing Translational Sciences (NCATS), 2010).
Screen size: about 370,000 compounds; about 150 (0.041%) were called active. Inconclusive results, whose numbers are uncertain, are shown with a selection of clear calls. Calls follow the shape of the dose curve; as a rule, active = well fitted inhibition curve with a large enough effect; inconclusive = small, poorly fitted or top-dose-only effect; inactive = flat fitted curve, though single readings scatter. No potency is given beside an inconclusive call; the fits are too rough.

What follows are compounds tested against Beta-lactamase (Escherichia coli (strain K12)) (UniProt P00811) (assay: qHTS Inhibitors of AmpC Beta-Lactamase (assay with detergent)). Settings: AmpC hydrolysis of nitrocefin, absorbance 480 nm, 0.01% Triton; series mostly up to 114 µM.
Chain of UniProt P00811 (P00811 whole entry, looked up): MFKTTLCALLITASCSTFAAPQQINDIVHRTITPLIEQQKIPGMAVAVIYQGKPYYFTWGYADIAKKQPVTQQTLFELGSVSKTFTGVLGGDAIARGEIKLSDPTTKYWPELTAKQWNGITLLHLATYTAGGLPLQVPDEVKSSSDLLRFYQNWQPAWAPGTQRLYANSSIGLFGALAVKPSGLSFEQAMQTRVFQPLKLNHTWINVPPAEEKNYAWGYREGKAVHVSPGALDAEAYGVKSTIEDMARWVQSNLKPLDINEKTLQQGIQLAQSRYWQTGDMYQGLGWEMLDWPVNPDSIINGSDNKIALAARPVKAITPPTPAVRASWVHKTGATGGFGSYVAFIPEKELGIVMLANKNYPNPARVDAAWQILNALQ
Method in brief: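 AmpC (5.3 nM in the dispensed reagent) in 20 mM phosphate pH 7.0 with 0.01% (detergent screen) or 0.0001% Triton X-100 was preincubated with compounds for 15 min at room temperature. Nitrocefin was then added from an 800 uM solution, and hydrolysis was followed at 480 nm.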
Also: nearly all actives have a fitted effect of over 25% in size.
Potency is read from the fitted curve at half-maximal effect; tags tell the direction and shape of the fitted curve.

SMILES	Potency
COc1nc2ccccc2cc1-c1noc(-c2cccnc2)n1	inconclusive [inhibitor, partial curve, poor fit]
CCOC(=O)N1CCN(C(=O)CN2C(=O)c3ccccc3S2(=O)=O)CC1	inconclusive [inhibitor, full curve, poor fit]
Cc1ccc(NC(=O)CCn2cccc2)cc1F	inconclusive [inhibitor, full curve, poor fit]
COC(=O)c1ccccc1NC(=O)c1cc2sccc2n1C	inconclusive [inhibitor, full curve, poor fit]
CCOc1ccc(S(=O)(=O)Nc2ccc(C(=O)N(C)CC(=O)Nc3ccc(OC)cc3)cc2)cc1	inconclusive [inhibitor, full curve, poor fit]
Cc1cc(C)cc(-n2c(-c3ccccc3)c(C)n3c4c(=O)n(C)c(=O)n(C)c4nc23)c1	inactive
COc1ccc(CN(C(=O)CSc2nnc(-c3ccc(OC)c(OC)c3)o2)c2ccc(F)cc2)cc1	inconclusive [inhibitor, partial curve, poor fit]
Cc1ccc(C(=O)OCC(=O)N(C)c2ccccc2)cc1C	inconclusive [inhibitor, partial curve]
CCOC(=O)C1=C(C)N(CCCCCC(=O)O)C(=O)NC1c1cccc([N+](=O)[O-])c1 (centres undefined)	inactive
COc1ccc(-c2noc(-c3ccccc3C(=O)NCc3ccco3)n2)cc1	inconclusive [inhibitor, single point]
CCOc1cc(CN2CCc3c([nH]c4ccccc34)C2)ccc1OC	inconclusive [inhibitor, full curve, poor fit]
CN(C)c1ccc(N2CN=C3SCC(=O)N3C2)cc1	inactive
O=C1CC(N(O)c2ccccc2)C(=O)N1Cc1ccccc1 (centres undefined)	inconclusive [inhibitor, full curve, poor fit]
O=C(COc1cccc(Br)c1)N/N=C1\CCSC1	inconclusive [inhibitor, partial curve, poor fit]
CC(C)COC(=O)Nc1ccccc1C(=O)N1CCOCC1	inconclusive [inhibitor, full curve, poor fit]
CCOc1cc(CNC(=O)c2ccc3c(c2)NC(=O)C2CCCCN32)cc(OCC)c1OCC (centres undefined)	inactive
CCN1c2ccccc2-c2nc3ccccc3n2C1c1cccs1 (centres undefined)	inconclusive [inhibitor, full curve, poor fit]
CC(=O)C1=C(c2ccccc2)NC(=O)NC1c1cccs1 (centres undefined)	inconclusive [inhibitor, full curve, poor fit]
Cc1cccc(NC(=S)NNC(=O)c2sccc2C)c1	inactive
Cc1cccc(C(=O)NCCc2ccccc2)c1	inactive
CCCSc1nc2ccsc2c(=O)n1CC	inconclusive [inhibitor, full curve, poor fit]
CCOC(=O)CSc1nc2c(c(=O)[nH]c(=O)n2C)n1CCc1ccccc1	inconclusive [inhibitor, full curve, poor fit]
Cc1csc(N2CCN(c3cc4nc(-c5ccncc5)[nH]c4cc3Cl)CC2)n1	inactive

SMILES	Potency
COc1ccc(C(=O)Nc2ccc(CN3CCOCC3)cc2)cc1Br	inconclusive [inhibitor, partial curve, poor fit]
CCOC(=O)C1CCN(C(=O)c2ccc(-n3ccc4ccccc43)s2)CC1	inactive
C=CCN1C(=O)CC(C(=O)NC)SC1=Nc1ccc(C(=O)OCC)cc1 (centres undefined)	inconclusive [inhibitor, partial curve, poor fit]
CC(C)c1ccc(NC(=O)COc2nnc(-c3cccs3)c(-c3cccs3)n2)cc1	inconclusive [inhibitor, single point]
c1ccc(Nc2nn[nH]n2)cc1	inconclusive [inhibitor, full curve]
COc1cccc(/C=N/NC(=O)Cn2nc(C)c([N+](=O)[O-])c2C)c1O	inactive
COc1ccc(N(C(=O)c2ccco2)C(C(=O)NC2CCCC2)c2cccs2)cc1 (centres undefined)	inactive
Cc1ccc2cc(C=O)c(N3CCOCC3)nc2c1C	inconclusive [inhibitor, full curve, poor fit]
O=C(CC(Nc1ccc(Cl)cc1)C(=O)O)c1ccccc1 (centres undefined)	inactive
O=C1C2CCCN2C(c2ccccc2)N1c1cccc(Cl)c1 (centres undefined)	inconclusive [inhibitor, full curve]
COCCCNC(=O)c1cc(C(=O)c2c(-c3c(Cl)cccc3Cl)noc2C)c[nH]1	inconclusive [inhibitor, full curve, poor fit]
NCc1ccccc1COc1ccccc1	inconclusive [inhibitor, full curve, poor fit]
O=C(CSCc1ccccc1Cl)N1CCN(c2ccc(Cl)cc2)CC1	inactive
N#Cc1ccc(/C=C/C(=O)c2ccccc2)cc1	inactive
COC1OC(CO)C(O)C(O)C1O (centres undefined)	inconclusive [inhibitor, partial curve]
O=C1OC(NC(=O)c2ccccc2)C(n2cc(CO)nn2)=C1Cl (centres undefined)	inconclusive [inhibitor, full curve, poor fit]
Oc1ccc(N2CCN(C(c3cccnc3)c3nnnn3Cc3ccccc3)CC2)cc1 (centres undefined)	inconclusive [inhibitor, full curve]
NS(=O)(=O)c1ccc(CCNC(=O)CSc2cccs2)cc1	inconclusive [inhibitor, single point]
NS(=O)(=O)c1ccc(-n2nc(C(=O)O)cc2-c2ccc(Cl)cc2)cc1	inconclusive [inhibitor, partial curve]
Cc1ccccc1NC(=O)Cn1nnc2c(cnn2-c2ccc(F)cc2)c1=O	inconclusive [inhibitor, full curve]
COc1ccc(N2CCN(S(=O)(=O)CCNS(=O)(=O)c3ccccc3)CC2)cc1	inconclusive [inhibitor, full curve, poor fit]
COc1ccc(-c2nc3ccccc3c(=O)n2CCOc2cccc(C)c2C)cc1	inconclusive [inhibitor, partial curve]
CCOC(=O)/C=C1\SCC(=O)N1CC(=O)NCc1ccc(OC)c(OC)c1	inconclusive [inhibitor, full curve, poor fit]

SMILES	Potency
CCCCN(C)C(=O)CS(=O)(=O)Cc1nc(-c2cccc(OC)c2)oc1C	inconclusive [inhibitor, full curve]
COc1ccccc1NC(=S)N1CCN(c2ncccn2)CC1	inconclusive [inhibitor, full curve, poor fit]
COc1nc(N/N=C/c2ccc(C)cc2)nc(N2CCCCC2)n1	inconclusive [inhibitor, full curve]
CC(C)CN1CCC(=O)N(CCOc2ccccc2)CC1	inactive
CN(CCOc1ccc(F)cc1)Cc1ccccc1	inconclusive [inhibitor, full curve]
Cc1oc2cc3oc(=O)c(CCC(=O)N4C[C@H]5C[C@@H](C4)c4cccc(=O)n4C5)c(C)c3cc2c1C	inconclusive [inhibitor, full curve, poor fit]
Cc1ccc(C(=O)/C=C/c2ccccc2[N+](=O)[O-])cc1	inactive
Cc1nc2c(C)cccn2c(=O)c1NC(=O)COc1ccccc1	inconclusive [inhibitor, full curve, poor fit]
COc1ccc(OC)c(NC(=O)CS(=O)(=O)Cc2nc(-c3ccccc3C)oc2C)c1	inconclusive [inhibitor, full curve, poor fit]
CCOc1ccccc1OCCOCCOc1ccccc1[N+](=O)[O-]	inconclusive [inhibitor, single point]
O=C1NC(=NCc2ccccc2)S/C1=C\c1ccccc1	inactive
N#C/C(=C\c1ccc(-c2ccc(C(=O)O)cc2)o1)C(=O)Nc1ccccc1C(=O)O	inactive
CC(=O)c1cccc(NC(=S)NC(=O)CC(C)(C)C)c1	inactive
COCCNC(=O)C1CCC(=O)N(c2ccc(OC)cc2)C1c1ccc(OC)c(OC)c1 (centres undefined)	inconclusive [inhibitor, full curve, poor fit]
COc1ccc(S(=O)(=O)N2CCC(C(=O)NCC3CCCCC3)CC2)cc1	inconclusive [inhibitor, partial curve]
COc1ccccc1NS(=O)(=O)c1ccc(C(=O)N2CC(C)OC(C)C2)cc1 (centres undefined)	inconclusive [inhibitor, full curve, poor fit]
Cc1noc(NS(=O)(=O)c2ccc(NC(=O)CSc3nnc4c(n3)[nH]c3ccccc34)cc2)c1C	inactive
O=C(N/N=C/c1cn(CC(=O)N2CCOCC2)c2ccccc12)c1cccnc1	inactive
CCOc1ccc2nc(NC(NC(=O)CC)(C(=O)OC)C(F)(F)F)sc2c1 (centres undefined)	inactive
CCOC(=O)c1ccc2c(c1)N(CC(=O)N(C)c1ccccc1)C(=O)c1ccccc1S2	inactive
O=C(NCCN1CCNC1=O)C1CCC(=O)N(Cc2cccc(C(F)(F)F)c2)C1 (centres undefined)	inconclusive [inhibitor, partial curve, poor fit]
O=C(NCCCCNC(=O)c1ccc(F)cc1)c1ccc(F)cc1	inconclusive [inhibitor, full curve, poor fit]
Cc1c(C(=O)NCc2cccc(Cl)c2)sc2ncnc(N(C)C3CCCCC3)c12	inactive
